{
  "source": "paper PMC4336329",
  "about": "(PLoS ONE, 2015)",
  "note": "In all, about 310,000 compounds went through this assay and about 2,200 (0.71%) showed an effect of 50% or more. Effects have a minus sign here. This is one part of the list.",
  "data": [
    {"biological_target": "human ether-à-go-go-related gene (hERG) potassium channel (human, UniProt Q12809)", "sequence (Q12809 whole entry, looked up)": "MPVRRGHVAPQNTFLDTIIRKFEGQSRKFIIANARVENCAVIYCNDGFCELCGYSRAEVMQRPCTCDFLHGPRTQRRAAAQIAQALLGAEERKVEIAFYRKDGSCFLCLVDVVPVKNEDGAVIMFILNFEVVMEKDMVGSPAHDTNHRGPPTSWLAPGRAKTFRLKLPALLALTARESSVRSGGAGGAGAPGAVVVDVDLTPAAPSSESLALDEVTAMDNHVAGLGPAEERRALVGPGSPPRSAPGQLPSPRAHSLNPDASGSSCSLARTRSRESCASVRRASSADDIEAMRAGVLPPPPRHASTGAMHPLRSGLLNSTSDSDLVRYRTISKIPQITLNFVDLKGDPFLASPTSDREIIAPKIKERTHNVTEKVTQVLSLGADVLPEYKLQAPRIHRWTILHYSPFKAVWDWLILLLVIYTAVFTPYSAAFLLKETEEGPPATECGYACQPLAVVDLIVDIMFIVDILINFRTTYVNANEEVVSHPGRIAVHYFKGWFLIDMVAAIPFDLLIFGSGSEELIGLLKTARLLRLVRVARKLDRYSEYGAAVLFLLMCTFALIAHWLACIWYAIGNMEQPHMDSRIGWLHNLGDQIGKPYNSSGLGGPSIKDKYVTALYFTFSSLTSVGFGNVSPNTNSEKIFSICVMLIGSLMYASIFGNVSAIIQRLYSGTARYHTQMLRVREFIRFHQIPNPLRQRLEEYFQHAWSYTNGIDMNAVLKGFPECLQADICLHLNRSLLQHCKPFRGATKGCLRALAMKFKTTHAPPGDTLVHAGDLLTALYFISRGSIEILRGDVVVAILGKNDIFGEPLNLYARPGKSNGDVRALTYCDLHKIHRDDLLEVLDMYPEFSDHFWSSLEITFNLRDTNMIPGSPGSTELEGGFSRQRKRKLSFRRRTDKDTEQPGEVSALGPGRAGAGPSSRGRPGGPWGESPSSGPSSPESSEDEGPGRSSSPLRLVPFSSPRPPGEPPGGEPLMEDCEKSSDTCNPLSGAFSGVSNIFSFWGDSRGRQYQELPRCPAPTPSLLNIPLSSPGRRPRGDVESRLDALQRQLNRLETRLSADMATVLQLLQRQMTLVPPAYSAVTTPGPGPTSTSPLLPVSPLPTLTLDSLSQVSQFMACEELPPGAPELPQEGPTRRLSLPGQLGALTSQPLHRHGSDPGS", "test": "primary screen, population patch clamp on CHO cells stably expressing hERG", "units": {"hERG current change (%, negative = inhibition) at 1uM": "%"}, "values": [
      {"compound": "N#Cc1cnn(-c2cccc(Cl)c2)c1-n1cccc1", "hERG current change (%, negative = inhibition) at 1uM": 13.7},
      {"compound": "CC(C)c1ccc(S(=O)(=O)N2CCN(C(=O)CN3C(=O)NC4(CCCC4)C3=O)CC2)cc1", "hERG current change (%, negative = inhibition) at 1uM": 0.709},
      {"compound": "Cc1cc(=O)n2[nH]cc(-c3ccccc3)c2n1", "hERG current change (%, negative = inhibition) at 1uM": 8.64},
      {"compound": "O=C(Nc1cccc(OCC(=O)N2CCOCC2)c1)C1CCCCC1", "hERG current change (%, negative = inhibition) at 1uM": -1.54},
      {"compound": "CCOc1cc(C#N)c(NC(=O)c2ccco2)cc1OCC", "hERG current change (%, negative = inhibition) at 1uM": -0.599},
      {"compound": "CC(NC(=O)CCc1ccccc1)c1cc2c(cc1Cl)OCCO2", "note": "(stereo not drawn)", "hERG current change (%, negative = inhibition) at 1uM": 6.78},
      {"compound": "O=C1CCCN1CCC1CCN(C(=O)Nc2ccccc2)CC1", "hERG current change (%, negative = inhibition) at 1uM": 2.38},
      {"compound": "CCOC(=O)c1cc(C(=O)Nc2ccccc2F)nn1C", "hERG current change (%, negative = inhibition) at 1uM": 1.77},
      {"compound": "Cc1oc(-c2cccc(Cl)c2)nc1CS(=O)(=O)CC(=O)NCCN1CCOCC1", "hERG current change (%, negative = inhibition) at 1uM": 9.67},
      {"compound": "c1ccc(CCN2CN=C(Nc3nc4ccccc4o3)NC2)cc1", "hERG current change (%, negative = inhibition) at 1uM": 6.18},
      {"compound": "N#C/C(=C\\c1ccc(N2CCCCC2)o1)C(N)=O", "hERG current change (%, negative = inhibition) at 1uM": 15.8},
      {"compound": "CC(C)CC(=O)Nc1ccccc1N1CCN(c2ccccc2)CC1", "hERG current change (%, negative = inhibition) at 1uM": 7.9},
      {"compound": "Cc1cc(CNC(=O)Cn2cc([N+](=O)[O-])cn2)c2ccccc2n1", "hERG current change (%, negative = inhibition) at 1uM": 11.8},
      {"compound": "Cc1ccc(C(=O)N2CCN(C(=O)c3ccco3)CC2)cc1NC(=O)c1ccco1", "hERG current change (%, negative = inhibition) at 1uM": -0.605},
      {"compound": "COc1ccc(OC)c(N2C(=O)CCCC2=O)c1", "hERG current change (%, negative = inhibition) at 1uM": 13.8},
      {"compound": "CCCC(=O)n1nc(-c2ccco2)nc1N", "hERG current change (%, negative = inhibition) at 1uM": 13.2},
      {"compound": "CCCOc1ccc(-c2nc(C#N)c(N3CCN(C)CC3)o2)cc1", "hERG current change (%, negative = inhibition) at 1uM": -3.25},
      {"compound": "Cc1noc(C)c1COc1ccc(C(=O)Nc2ncccc2O)cc1", "hERG current change (%, negative = inhibition) at 1uM": 8.99},
      {"compound": "Cc1ccc2nc(N(CCCN(C)C)C(=O)CS(=O)(=O)c3ccccc3)sc2c1.Cl", "hERG current change (%, negative = inhibition) at 1uM": 11.5},
      {"compound": "CCOC(=O)c1sc(N)c(C#N)c1CSc1nnc(C2CC2)n1N", "hERG current change (%, negative = inhibition) at 1uM": 4.88},
      {"compound": "COC(=O)CCC(=O)Nc1ccc(NC(C)=O)cc1", "hERG current change (%, negative = inhibition) at 1uM": 19.2},
      {"compound": "COC(=O)c1sc2cc(C(F)(F)F)cnc2c1-c1ccccn1", "hERG current change (%, negative = inhibition) at 1uM": 10.4},
      {"compound": "COc1ccc(NC(=O)c2ccc3nc(-c4ccccc4)c(-c4ccccc4)nc3c2)c(OC)c1", "hERG current change (%, negative = inhibition) at 1uM": 7.47},
      {"compound": "Cc1ccnc(NC(=O)COC(=O)C2COc3ccccc3O2)n1", "note": "(stereo not drawn)", "hERG current change (%, negative = inhibition) at 1uM": 3.9},
      {"compound": "COC(=O)C1=C(C)NC2=C(C1c1ccc(O)cc1)S(=O)(=O)c1ccccc12", "note": "(stereo not drawn)", "hERG current change (%, negative = inhibition) at 1uM": 11},
      {"compound": "O=S(=O)(NCc1ccccc1)NCc1ccccc1F", "hERG current change (%, negative = inhibition) at 1uM": 7.87},
      {"compound": "C(=C\\c1ccccc1)/CSc1nnc(-c2ccncc2)n1Cc1ccco1", "hERG current change (%, negative = inhibition) at 1uM": -26.9},
      {"compound": "COc1cc(C(=O)NC2CCCc3ccccc32)cc(OC)c1C", "note": "(stereo not drawn)", "hERG current change (%, negative = inhibition) at 1uM": 14.7},
      {"compound": "COc1ccc(-c2ccc(C#N)c(OC(=O)c3c(Cl)cccc3Cl)n2)cc1", "hERG current change (%, negative = inhibition) at 1uM": 18.6},
      {"compound": "COc1ccc(N(C(C)C(=O)N2CCCC2)S(C)(=O)=O)cc1", "note": "(stereo not drawn)", "hERG current change (%, negative = inhibition) at 1uM": 11.6},
      {"compound": "c1ccc(Nc2nc(N3CCNCC3)nc(N3CCOCC3)n2)cc1", "hERG current change (%, negative = inhibition) at 1uM": -6.11},
      {"compound": "CC(C)CN(CC(C)C)C(=O)CN1C(=O)NC2(CCCc3ccccc32)C1=O", "note": "(stereo not drawn)", "hERG current change (%, negative = inhibition) at 1uM": 14.5},
      {"compound": "Cc1ccc(NC(=O)C(C)OC(=O)CCN=C2NS(=O)(=O)c3ccccc32)cc1", "note": "(stereo not drawn)", "hERG current change (%, negative = inhibition) at 1uM": 5.52},
      {"compound": "COc1cccc(OCc2cc(C(=O)NCc3ccc4c(c3)OCO4)no2)c1", "hERG current change (%, negative = inhibition) at 1uM": 8.78},
      {"compound": "CCOC(=O)Cn1nc(C)c(-c2ccccc2)c1N", "hERG current change (%, negative = inhibition) at 1uM": 11},
      {"compound": "O=C(OCc1ccc(F)cc1)c1ccc2c(c1)-c1ccccc1C2=O", "hERG current change (%, negative = inhibition) at 1uM": 19.7},
      {"compound": "CCN(Cc1ccccc1)C(=O)C1CCN(C/C(C)=C/c2ccccc2)CC1.O=C(O)C(=O)O", "hERG current change (%, negative = inhibition) at 1uM": -31},
      {"compound": "N=C1/C(=C/c2ccc(OCc3ccccc3)cc2)C(=O)N=C2SC(CC(=O)N3CCOCC3)=NN12", "hERG current change (%, negative = inhibition) at 1uM": 10.2},
      {"compound": "O=C(Nc1cccc(S(=O)(=O)C(F)F)c1)c1ccc(S(=O)(=O)N2CCOCC2)cc1", "hERG current change (%, negative = inhibition) at 1uM": 0.202},
      {"compound": "CCCCCCSc1ccc([C@H]2N[C@@](CC(C)C)(C(=O)OC)[C@H]3C(=O)N(CC)C(=O)[C@@H]23)cc1.O=C(O)C(F)(F)F", "hERG current change (%, negative = inhibition) at 1uM": 6.48},
      {"compound": "COc1ccc(OCC(=O)Nc2cccc3cccnc23)cc1", "hERG current change (%, negative = inhibition) at 1uM": 5.87},
      {"compound": "CCOc1ccc(NC(=O)CSc2nc(=O)n(CCCN3CCOCC3)c3c2CCC3)cc1", "hERG current change (%, negative = inhibition) at 1uM": 6.24},
      {"compound": "C[C@@H](O)C(C(=O)N1CCNCC1)n1cc([C@@H](N)CCCCN)nn1", "note": "(stereo partly drawn)", "hERG current change (%, negative = inhibition) at 1uM": 0.985},
      {"compound": "CC(C)N(C)Cc1nnnn1CC(=O)N(C)Cc1ccc(F)cc1", "hERG current change (%, negative = inhibition) at 1uM": 2.39},
      {"compound": "Cc1ccc(-n2[nH]c3c4c(ccc3c2=O)C(=O)c2ccccc2C4=O)cc1", "hERG current change (%, negative = inhibition) at 1uM": -1.5}
    ]}
  ]
}
